Measured values taken from PubChem BioAssay AID686978 (National Center for Advancing Translational Sciences (NCATS), 2013).
“And” between values parts separate entries of the source, which are not always exact repeats. Equal values may be shown once. About 64,000 (15%) of roughly 420,000 compounds were called active. The shares of active, inactive and inconclusive entries below differ from those in the screen. Calls follow the shape of the dose curve; as a rule, active = well fitted inhibition curve with a large enough effect; inconclusive = small, poorly fitted or top-dose-only effect; inactive = flat fitted curve, though single readings scatter. No potency is given beside an inconclusive call; the fits are too rough.

assay: qHTS for Inhibitors of human tyrosyl-DNA phosphodiesterase 1 (TDP1): qHTS in cells in absence of CPT; settings: DT40 Tdp1-/- hTDP1 cells, no CPT, ATP luminescence, 48 h; activity change, negative = growth inhibition: at 46.2 µM (top of the series) unless noted; also: nearly all actives have a fitted effect of over 55% in size
Method in brief: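 A cellular qHTS used chicken DT40 cells lacking endogenous Tdp1 but carrying stably transfected human TDP1. Compounds were applied without camptothecin, and cell growth kinetics were judged by ATP-dependent luminescence after ≥48 hr.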
% is scaled to controls: 0 for no effect and ±100 for the full control effect; potency is read from the fitted curve at half-maximal effect; tags tell the direction and shape of the fitted curve.

Compound	activity change, negative = growth inhibition	Potency
COc1cccc(C(=O)Nc2cc(NC(=O)c3cccs3)ccc2C)c1	inactive: -19.3%	
CSC1=NC2(CCN(C(=O)NC3CCCCC3)CC2)N=C1c1ccc(C)c(C)c1	inactive: -2.61%	
COc1ccc(Br)cc1CNC(=O)c1cc2n(n1)CCCN(Cc1ccc(C)cc1)C2=O		inconclusive [inhibitor, single point]
Cc1cc(O)c(C(C)C)cc1N=C1CSC(=O)N1		inconclusive [inhibitor, single point]
CC1(C)COC(=S)N1CCC#N	inactive: -7.32%	
Cc1ccc(SCc2ccc(C(=O)NCc3ccncc3)cc2)cc1		inconclusive [inhibitor, single point]
Cc1c(Nc2cc(N3CCCC(C)C3)c3nonc3c2[N+](=O)[O-])c(=O)n(-c2ccccc2)n1C (configuration not stated)	inactive: 10.8%	
COC(=O)c1ccc(C(C(=O)NCc2ccccc2)N(Cc2ccco2)C(=O)c2cnccn2)cc1 (configuration not stated)	inactive: -24.8%	
CCOC(=O)CCc1c(C)nc2cc(-c3ccccc3OC)[nH]n2c1=O		inconclusive [inhibitor, partial curve]
COc1ccc(OC)c(-c2csc(NC(=O)Cc3ccccc3)n2)c1		inconclusive [inhibitor, single point]
O=C(Nc1sc2c(c1C(=O)NCc1ccco1)CCCC2)c1cc(=O)c2ccccc2o1		inconclusive [inhibitor, full curve]
Oc1ccccc1N1CCN(C(=S)NCc2ccccc2)CC1		inconclusive [inhibitor, single point]
Cc1ccc(NC(=S)N2CCN(CCN3C(=O)c4cccc5cccc(c45)C3=O)CC2)cc1		inconclusive [inhibitor, partial curve]
CCCCCCCC/C=C/CCCCCCCCOP(=O)([O-])OCC[N+](C)(C)C		inconclusive [inhibitor, single point]
CC(=O)NCCOc1nc(N(C)C)nc(N2CCCCC2)n1	inactive: 5.1%	
O=C(NCc1ccccn1)c1c(O)c2cccc3c2n(c1=O)CC3		inconclusive [inhibitor, partial curve]
O=C(NC1CCCCC1)C(c1ccncc1)N(Cc1ccc(F)cc1)C(=O)c1ccccn1 (configuration not stated)	inactive: -8.1%	
CCc1ccc(CN(Cc2ccco2)c2cnc(S(C)(=O)=O)nc2C(=O)Nc2ccccc2Cl)cc1		inconclusive [inhibitor, single point]
NC(=O)COc1ccc2c3c(c(=O)oc2c1)CCCCC3	inactive: -16.1%	
CN(CC(=O)N1CCc2ccccc2C1)c1ccccc1	inactive: -23.7%	
CC1=C(C(=O)Nc2ccccc2C(F)(F)F)C(c2sccc2C)NC(=S)N1 (configuration not stated)		active: 16.4 µM
COC(=O)C1CCN(C(=O)COC(=O)c2cc(S(=O)(=O)N3CCOCC3)ccc2C)CC1	inactive: -11%	
COc1ccccc1CNC(=O)c1cc(S(=O)(=O)N2CCN(c3ccccc3)CC2)ccc1Cl		inconclusive [inhibitor, single point]
Nc1c(C(=O)Nc2ccc3c(c2)OCCO3)nnn1Cc1cccc(Br)c1		active: 23.1 µM

Compound	activity change, negative = growth inhibition	Potency
Cc1ccc(Sc2c(C)nn(C(C)(C)C)c2OC(=O)C(C)(C)C)cc1		inconclusive [inhibitor, partial curve]
CCOc1ccc(NC(=O)C(Cc2ccccc2)N2C(=O)c3cccc4cccc(c34)C2=O)cc1 (configuration not stated)		active: 8.2 µM
CCc1nnc(SC(CC)C(=O)Nc2cccc(OC)c2)c2cc3oc(C)cc3n12 (configuration not stated)		inconclusive [inhibitor, single point]
CCCc1nc2ccccc2c(=O)n1CC(=O)c1ccc(F)cc1		inconclusive [inhibitor, single point]
COc1cccc(-c2cnc3c(NC(C)=O)cc(-c4cccc(C(=O)N(C)C)c4)cn23)c1		inconclusive [inhibitor, single point]
COc1cc(OC)cc(C(=O)Nn2cnnc2)c1	inactive: 1.09%	
COc1ccc(N2CCN(C(=O)CSc3nc(C)cs3)CC2)cc1	inactive: -10.3%	
COc1cccc(/C=C2\SC(N3CCCC(C)C3)=NC2=O)c1OC (configuration not stated)		inconclusive [inhibitor, partial curve, poor fit]
O=C(CNC(=O)c1cccc(Br)c1)N/N=C/c1cn[nH]c1-c1ccccc1		inconclusive [inhibitor, single point]
O=C(O)C[C@H]1c2ccc(C(F)(F)F)cc2S(=O)(=O)N1C1CCCCC1		inactive
Clc1ccc(-c2ccccc2)nn1	inactive: -3.94%	
CCOC(=O)c1ccc(NC(=O)CC2C(=O)OCCN2CC)cc1 (configuration not stated)		active: 11.6 µM and active: 20.6 µM
COc1ccc(OC)c(S(=O)(=O)n2cnc3cc(C)c(C)cc32)c1		inconclusive [inhibitor, partial curve]
Cc1ccc(NC(=O)Nc2ccc3snnc3c2)cc1C		inconclusive [inhibitor, single point]
CCS(=O)(=O)N1Cc2ccccc2CC1C(=O)Nc1nc2ccc(F)cc2s1 (configuration not stated)		inconclusive [inhibitor, single point]
COc1ccc(CNc2nc3ccccc3n2C(C)C)c(O)c1		inconclusive [inhibitor, single point]
O=C(CC12CC3CC(CC(C3)C1)C2)NC(=S)NCc1ccco1		inconclusive [inhibitor, partial curve]
C=C(C)C(=O)OCC(O)COc1ccc(C(C)(C)c2ccc(OCC(O)COC(=O)C(=C)C)cc2)cc1 (configuration not stated)		active: 20.6 µM
CCc1nc2oc3cc(OC)ccc3c(=O)c2c(=O)n1Cc1ccco1	inactive: -28%	
CCN(c1ccccc1)c1nnc(NC(=O)Nc2ccccc2F)s1		active: 2.59 µM
O=S(=O)(c1ccccc1)N1CCC2(CCCN(Cc3cc(C(F)(F)F)cc(C(F)(F)F)c3)C2)CC1		inconclusive [inhibitor, single point]
CC(CC(=O)Nc1ncc([N+](=O)[O-])s1)c1ccccc1 (configuration not stated)		inconclusive [inhibitor, single point]
Nn1c(SCCOc2ccc(Cl)cc2)nnc1-c1cccnc1		inconclusive [inhibitor, partial curve]
CCN(C(=O)C1CCCN(S(=O)(=O)c2c(C)noc2/C=C/N(C)C)C1)c1cccc(C)c1 (configuration not stated)		inconclusive [inhibitor, single point]

Compound	activity change, negative = growth inhibition	Potency
COc1ccccc1NC(=S)NC(NC(=O)CC(C)C)C(Cl)(Cl)Cl (configuration not stated)	inconclusive: -32.1% [inhibitor]	
CCOc1[nH]n(-c2ccccc2)c(=O)c1C=Nc1ccc(OC)cc1		inconclusive [inhibitor, partial curve]
O=C(CSc1nnc(-c2cccnc2)n1Cc1ccco1)c1ccc(Cl)cc1		active: 25.9 µM
Cc1nccn1Cc1ccccc1	inactive: -1.63%	
CC1CCN(CCCOc2ccc(Cl)cc2Br)CC1		inconclusive [inhibitor, single point]
CN(Cc1ccc2c(c1)CN(C(=O)c1cccc(N(C)C)c1)CCO2)Cc1cc(C2CC2)n[nH]1		active: 23.1 µM
COc1ccccc1CN1C[C@@H]2C[C@@H](C3=Cc4cccc(OC)c4OC3)N3CCC[C@@]23C1=O		inconclusive [inhibitor, single point]
COC(=O)c1c(N2C(=O)[C@H]3[C@@H](C2=O)[C@]2(C(=O)Nc4c(C)cccc42)N2CCC[C@@H]32)sc(C)c1C		active: 10.3 µM
O=C(COC(=O)c1cc2c(s1)CCCC2)NCc1ccccc1Cl	inactive: -5.8%	
Nc1nonc1-n1nnc(C(=O)N/N=C/c2ccccc2Cl)c1CSc1ccccc1	inconclusive: -31% [inhibitor]	
Cc1cccc(NC(=S)N(Cc2ccc(Cl)cc2)Cc2ccc(C(=O)O)cc2)c1	inactive: -18%	
CCCC1=Nc2cc(C(=O)NCc3ccc(OC)cc3)ccc2Sc2ccc(C)cc21		active: 9.2 µM
Cc1ccc(C(=O)CN2CCN(c3ccccn3)CC2)c(C)c1	inactive: 10.5%	
Cc1ccc(-c2nc3ccccc3s2)cc1NC(=S)NC(=O)c1ccccc1		inconclusive [inhibitor, single point]
O=C(CCC1N=C2c3ccccc3N=C(SCc3ccc(F)cc3)N2C1=O)NCc1ccc(F)cc1 (configuration not stated)		inconclusive [inhibitor, single point]
COc1cccc(C(=O)CSc2nnc(CNS(=O)(=O)c3ccc(C)cc3)n2C)c1		inconclusive [inhibitor, single point]
O=c1c2ccccc2n(Cc2cccc(F)c2)c(=O)n1C1CCCC1		active: 23.1 µM
Cc1cccc(Cn2c(SCc3ccc(C(=O)NCCc4ccccc4)cc3)nc3ccncc32)c1		active: 13 µM
Cc1ccccc1S(=O)(=O)c1c(C)cc(-c2ccccc2)[nH]c1=O	inactive: -18.2%	
Cc1[nH]n(-c2cccc(Cl)c2)c(=O)c1-c1ccccc1		inconclusive [inhibitor, partial curve]
CCN(CC(=O)Nc1ccc(NC(C)=O)cc1)C(=O)c1cc2c(s1)CCCC2	inactive: 12%	
O=S(=O)(NCc1cc(-c2ccc(Cl)cc2)no1)c1ccc(Cl)cc1		inconclusive [inhibitor, single point]
CCOc1ccc(C(=O)NCCn2cc(SCC(=O)Nc3ccc4c(c3)OCCO4)c3ccccc32)cc1		inconclusive [inhibitor, single point]
CCOc1ccc(-c2nc(CSCC(=O)N3CCN(c4ccc(F)cc4)CC3)c(C)o2)cc1	inactive: -21.9%	
